# Counter-ions that a name gives are not always drawn. Among all 1,500 compounds or so, about 30 (2%) showed activity.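 How the source made its calls: active = robust z-score below -2; a few such results were not called.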 The list shows a part of the results.
# Test system: optoTopBP1 Flp-In 293 T-REx (HEK293) cells
# Test: light-induced TopBP1 condensate (nuclear foci) count, plate-normalised robust z-score vs non-control wells; higher = more TopBP1 condensates (negative = condensation inhibitor), active = hit call of the paper
# Conditions: 10 µM; incubation time 2 h
row,SMILES,light-induced TopBP1 condensate (z-score)
1,C#C[C@]1(O)CC[C@H]2[C@@H]3CCC4=CC(=O)CC[C@@H]4[C@H]3CC[C@@]21C [Norethindrone],inactive: 0.453
2,O=C(O)CNC(=O)c1ccccc1 [Hippuric acid],inactive: 0.739
3,CC(=O)O[C@]1(C(C)=O)CC[C@H]2[C@@H]3C=C(C)C4=CC(=O)CC[C@@H]4[C@H]3CC[C@@]21C [Nomegestrol acetate],inactive: -0.776
4,NS(=O)(=O)c1cc2c(cc1Cl)N=C(CSCc1ccccc1)NS2(=O)=O [Benzthiazide],inactive: -0.0882
5,O=C1C(CC[S+]([O-])c2ccccc2)C(=O)N(c2ccccc2)N1c1ccccc1 (centres undefined) [Sulfinpyrazone],inactive: -0.953
6,CC(=O)Oc1cc(C(F)(F)F)ccc1C(=O)O [Triflusal],inactive: 0.263
7,CC(=O)Oc1c(C)cccc1C(=O)O [Cresopirine],inactive: -0.352
8,N=c1ccn2c(n1)O[C@H]1[C@H](O)[C@@H](CO)O[C@H]12 [Ancitabine hydrochloride],active: -2.02
9,C[C@]12C=CC(=O)C=C1CC[C@@H]1[C@@H]2[C@@H](O)C[C@@]2(C)[C@H]1CC[C@]2(O)C(=O)CO [Prednisolone],inactive: -0.095
10,O=c1[nH]cc(F)c(=O)[nH]1 [5-fluorouracil],inactive: 0.202
11,CS(=O)(=O)c1ccc([C@@H](O)[C@@H](CO)NC(=O)C(Cl)Cl)cc1 [Thiamphenicol],inactive: 0.239
12,CO/N=C(\C(=O)N[C@@H]1C(=O)N2C(C(=O)[O-])=C(C[n+]3ccn4ncccc43)CS[C@H]12)c1nsc(N)n1 [Cefozopran hydrochloride],inactive: 0.96
13,CC(C)Cc1ccc([C@H](C)C(=O)O)cc1 [S-(+)-ibuprofen],inactive: -0.831
14,O=C(O)Cc1ccccc1Nc1c(Cl)cccc1Cl [Diclofenac sodium],inactive: 0.131
15,CN1CCN(CCCN2c3ccccc3Sc3ccc(S(=O)(=O)N(C)C)cc32)CC1 [Thioproperazine dimesylate],inactive: -0.78
16,NCCCC[C@H](N[C@@H](CCc1ccccc1)C(=O)O)C(=O)N1CCC[C@H]1C(=O)O [Lisinopril],inactive: -0.737
17,CC(C)(C)NC[C@H](O)COc1nsnc1N1CCOCC1 [Timolol maleate salt],inactive: -0.601
18,O=C(Nc1cccc2c(=O)cc(-c3nnn[nH]3)oc12)c1ccc(OCCCCc2ccccc2)cc1 [Pranlukast],inactive: 1.54
19,CCOC(=O)[C@H](CCc1ccccc1)N[C@H]1CCc2ccccc2N(CC(=O)O)C1=O [Benazepril hydrochloride],inactive: -1.21
20,COC1=C(OC)C(=O)C(CCCCCCCCCCO)=C(C)C1=O [Idebenone],inactive: -0.505
21,CCOC(=O)OC(C)OC(=O)[C@@H]1N2C(=O)[C@@H](NC(=O)[C@H](N)c3ccccc3)[C@H]2SC1(C)C (some centres undefined) [Bacampicillin hydrochloride],inactive: 1.02
22,CC(COc1ccccc1)N(CCCl)Cc1ccccc1 (centres undefined) [Phenoxybenzamine hydrochloride],inactive: -1.33

row,SMILES,light-induced TopBP1 condensate (z-score)
1,CCCNC(C)C(=O)Nc1ccccc1C (centres undefined) [Prilocaine hydrochloride],inactive: 0.739
2,COc1ccc(CN(CCN(C)C)c2ccccn2)cc1 [Pyrilamine maleate],inactive: -1.49
3,COc1cc(/C=C/C(=O)N2CCN(CC(=O)N3CCCC3)CC2)cc(OC)c1OC [Cinepazide maleate],inactive: -0.187
4,CC(=O)c1ccc(S(=O)(=O)NC(=O)NC2CCCCC2)cc1 [Acetohexamide],inactive: 0.743
5,C[C@H](CCc1ccccc1)NC[C@H](O)c1ccc(O)c(C(N)=O)c1 [Dilevalol],inactive: -0.185
6,CCCCC[C@H](O)/C=C/[C@@H]1[C@@H](C/C=C\CCCC(=O)O)[C@@H](O)C[C@H]1O [Dinoprost trometamol],inactive: -0.134
7,CCOC(=O)c1ccc(OC(=O)CCCCCNC(=N)N)cc1 [Gabexate mesilate],inactive: 0.917
8,O=C(NC1CCN(CCCCC2(C(=O)NCC(F)(F)F)c3ccccc3-c3ccccc32)CC1)c1ccccc1-c1ccc(C(F)(F)F)cc1 [Lomitapide],inactive: -1.14
9,CCCN[C@H]1CCc2nc(N)sc2C1 [Pramipexole dihydrochloride],inactive: 0.0332
10,Cc1cc(=O)oc2cc(O)ccc12 [Hymecromone],inactive: 0.0278
11,CN(C)CCCN1c2ccccc2[S+]([O-])c2ccc(Cl)cc21 (centres undefined) [Chlorpromazine Sulfoxide],inactive: -1.17
12,Cc1nc2ccccc2n1Cc1ccc(Cl)cc1 [Chlormidazole],inactive: -0.19
13,Cn1c(=O)c2nc[nH]c2n(C)c1=O [Theophylline monohydrate],inactive: -0.814
14,c1ccc(C2CN3CCSC3=N2)cc1 (centres undefined) [Tetramisole hydrochloride],inactive: 0.0229
15,C=C1c2cccc(O)c2C(=O)C2=C(O)[C@]3(O)C(=O)C(C(N)=O)=C(O)[C@@H](N(C)C)[C@@H]3[C@@H](O)[C@H]12 [Methacycline hydrochloride],inactive: -0.118
16,Cc1scc2c1N(C(=O)CN1CCN(C)CC1)c1ccccc1NC2=O [Telenzepine dihydrochloride],inactive: -0.968
17,CO[C@H]1/C=C/O[C@@]2(C)Oc3c(C)c(O)c4c(c3C2=O)C2=NC3(CCN(CC(C)C)CC3)NC2=C(NC(=O)/C(C)=C\C=C\[C@H](C)[C@H](O)[C@@H](C)[C@@H](O)[C@@H](C)[C@H](OC(C)=O)[C@@H]1C)C4=O [Rifabutin],inactive: -0.0256
18,O=C(O)Cc1csc(-c2ccc(Cl)cc2)n1 [Fenclozic acid],inactive: 0.196
19,O=C(Cn1ccnc1[N+](=O)[O-])NCCO [Etanidazole],inactive: 0.76
20,CN(C)CCN(Cc1cccs1)c1ccccn1 [Methapyrilene hydrochloride],inactive: 0.726
21,COc1c(O[C@@H]2O[C@H](CO)[C@@H](O)[C@H](O)[C@H]2O)cc2c(c1OC)-c1ccc(SC)c(=O)cc1[C@@H](NC(C)=O)CC2 [Thiocolchicoside],inactive: -0.423
22,CO[C@@H]1[C@@H](O[C@@H]2O[C@H](C)[C@@H](O[C@H]3C[C@@](C)(O)[C@@H](O)[C@H](C)O3)[C@H](N(C)C)[C@H]2O)[C@@H](CC=O)C[C@@H](C)[C@@H](O[C@H]2CC[C@H](N(C)C)[C@@H](C)O2)/C=C/C=C/C[C@@H](C)OC(=O)C[C@H]1OC(C)=O [Acetyl spiramycin],inactive: -0.0623

row,SMILES,light-induced TopBP1 condensate (z-score)
1,Clc1ccc(C(Cn2ccnc2)OCc2c(Cl)cccc2Cl)c(Cl)c1 (centres undefined) [Isoconazole],inactive: 0.803
2,NC(=O)N1c2ccccc2C=Cc2ccccc21 [Carbamazepine],inactive: 1.16
3,Nc1nc(F)nc2c1ncn2[C@@H]1O[C@H](CO)[C@@H](O)[C@@H]1O [Fludarabine],inactive: -0.365
4,CC[C@H]1OC(=O)[C@H](C)[C@@H](O[C@H]2C[C@@](C)(OC)[C@@H](O)[C@H](C)O2)[C@H](C)[C@@H](O[C@@H]2O[C@H](C)C[C@H](N(C)C)[C@H]2O)[C@](C)(O)C[C@@H](C)/C(=N\OCOCCOC)[C@H](C)[C@@H](O)[C@]1(C)O [Roxithromycin],inactive: 0.222
5,Nc1nc(=O)c2nc(CNc3ccc(C(=O)N[C@@H](CCC(=O)O)C(=O)O)cc3)cnc2[nH]1 [Folic acid],inactive: -0.903
6,CC(=O)N[C@@H](CC(C)C)C(=O)O [N-Acetyl-L-leucine],inactive: -0.0363
7,CC(C)C(=O)OCC(=O)[C@@]12O[C@H](C3CCCCC3)O[C@@H]1C[C@H]1[C@@H]3CCC4=CC(=O)C=C[C@]4(C)[C@H]3[C@@H](O)C[C@@]12C [Ciclesonide],inactive: 0.538
8,O=C1CN2Cc3c(ccc(Cl)c3Cl)N=C2N1 [Anagrelide],inactive: -0.566
9,CC(C)NCC(O)COc1ccc(COCCOC(C)C)cc1 (centres undefined) [Bisoprolol fumarate],inactive: 0.768
10,Nc1nc(=S)c2ncn([C@@H]3O[C@H](CO)[C@@H](O)[C@H]3O)c2[nH]1 [Thioguanosine],inactive: 1.17
11,CN1C2CCCC1CC(NC(=O)c1nn(C)c3ccccc13)C2 (centres undefined) [Granisetron],inactive: -0.344
12,CC(C)N1CCN(c2ccc(OCC3COC(Cn4cncn4)(c4ccc(Cl)cc4Cl)O3)cc2)CC1 (centres undefined) [Terconazole],inactive: -0.114
13,O=C(NCCNCC(O)COc1ccc(O)cc1)N1CCOCC1 (centres undefined) [Xamoterol hemifumarate],inactive: -0.645
14,CN(C)CCOC1=Cc2ccccc2Sc2ccc(Cl)cc21 [Zotepine],inactive: 0.612
15,CCN(Cc1ccncc1)C(=O)C(CO)c1ccccc1 (centres undefined) [Tropicamide],inactive: 0.0637
16,CCN(CC)CC#CCOC(=O)C(O)(c1ccccc1)C1CCCCC1 (centres undefined) [Oxybutynin chloride],inactive: -0.907
17,Cc1ncc([N+](=O)[O-])n1CCO [Metronidazole],inactive: 1.01
18,OC(CCN1CCCCC1)(c1ccccc1)C1CC2C=CC1C2 (centres undefined) [Biperiden hydrochloride],inactive: -0.0758
19,COc1ccc(C(=O)NCc2cccnc2)cc1C(=O)NCc1cccnc1 [Picotamide monohydrate],inactive: 0.793
20,C=CC[C@@H]1/C=C(\C)C[C@H](C)C[C@H](OC)[C@H]2O[C@@](O)(C(=O)C(=O)N3CCCC[C@H]3C(=O)O[C@H](/C(C)=C/[C@@H]3CC[C@@H](O)[C@H](OC)C3)[C@H](C)[C@@H](O)CC1=O)[C@H](C)C[C@@H]2OC [Tacrolimus Monohydrate],inactive: -0.289

# Reference: the supplement of paper PMC12582362
